# Measured values: the supplement of paper PMC8728848
# The other results are listed elsewhere or left out.
# B1: NakA (Mycobacterium tuberculosum) (protein)
# chain: SVVKPTKVTVFSPDGGADNPGEADLAIDGNPATSWKTDIYTDPVPFPSFKNGVGLMLQLPQATVVGTVAIDVASTGTKVEIRSASTPTPATLEDTAVLTSATALRPGHNTISVEAAAPTSNLLVWISTLGTTDGKSQADISEITIYAASD
# Assays:
# Assay in all cases: glycan array binding signal (z-score within array); higher = stronger binding
# Settings in all cases: glycan notation: IUPAC condensed, linker removed
# GlcNAc(b1-3)GalNAc = target: GlcNAc(b1-3)GalNAc
# Method in brief: (§1)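 Arrays were curated from the Consortium for Functional Glycomics database, 3228 in total, and kept only where the protein sequence was available. Binding is expressed as a within-array Z-score. This score was averaged across arrays of the same protein sequence at different concentrations or buffers and across linkers, and negative values can be read as non-binding.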
# [1] = target: GlcNAc(b1-3)[GlcNAc(b1-4)][GlcNAc(b1-6)]GlcNAc
# Method in brief: as §1
# [2] = target: GlcNAc(b1-3)[GlcNAc(b1-6)]Gal(b1-4)GlcNAc
# Method in brief: as §1
# [3] = target: GlcNAc(b1-3)[GlcNAc(b1-6)]GlcNAc
# Method in brief: as §1
# [4] = target: GlcNAc(b1-4)Gal(b1-4)GlcNAc
# Method in brief: as §1
# [5] = target: GlcNAc(b1-4)GlcNAc(b1-4)GlcNAc
# Method in brief: as §1
# [6] = target: GlcNAc(b1-4)GlcNAc(b1-4)GlcNAc(b1-4)GlcNAc(b1-4)GlcNAc
# Method in brief: as §1
# [7] = target: GlcNAc(b1-4)GlcNAc(b1-4)GlcNAc(b1-4)GlcNAc(b1-4)GlcNAc(b1-4)GlcNAc
# Method in brief: as §1
# [8] = target: GlcNAc(b1-4)[GlcNAc(b1-6)]GalNAc
# Method in brief: as §1
# [9] = target: GlcNAc(b1-6)Gal(b1-4)GlcNAc
# Method in brief: as §1
# GlcNAc(b1-6)GalNAc = target: GlcNAc(b1-6)GalNAc
# Method in brief: as §1
# Kdn(a2-3)Gal(b1-3)GlcNAc = target: Kdn(a2-3)Gal(b1-3)GlcNAc
# Method in brief: as §1
# Kdn(a2-3)Gal(b1-4)GlcNAc = target: Kdn(a2-3)Gal(b1-4)GlcNAc
# Method in brief: as §1
# [10] = target: Man(a1-2)Man(a1-2)Man(a1-3)Man
# Method in brief: as §1
# [11] = target: Man(a1-2)Man(a1-2)Man(a1-3)[Man(a1-2)Man(a1-3)[Man(a1-2)Man(a1-6)]Man(a1-6)]Man(b1-4)GlcNAc(b1-4)GlcNAc
# Method in brief: as §1
# [12] = target: Man(a1-2)Man(a1-2)Man(a1-3)[Man(a1-2)Man(a1-6)[Man(a1-3)]Man(a1-6)]Man(b1-4)GlcNAc(b1-4)GlcNAc
# Method in brief: as §1
# [13] = target: Man(a1-2)Man(a1-2)Man(a1-6)[Man(a1-3)]Man
# Method in brief: as §1
# Man(a1-2)Man(a1-3)Man = target: Man(a1-2)Man(a1-3)Man
# Method in brief: as §1
# [14] = target: Man(a1-2)Man(a1-3)[Man(a1-2)Man(a1-6)]Man
# Method in brief: as §1
# [15] = target: Man(a1-2)Man(a1-3)[Man(a1-3)[Man(a1-6)]Man(a1-6)]Man(b1-4)GlcNAc(b1-4)GlcNAc
# Method in brief: as §1
# [16] = target: Man(a1-2)Man(a1-3)[Man(a1-6)]Man(a1-6)[Man(a1-2)Man(a1-3)]Man(b1-4)GlcNAc(b1-4)GlcNAc
# Method in brief: as §1
# Man(a1-3)[Man(a1-6)]Man = target: Man(a1-3)[Man(a1-6)]Man
# Method in brief: as §1
# [17] = target: Man(a1-3)[Man(a1-6)]Man(a1-6)[Man(a1-3)]Man(b1-4)GlcNAc(b1-4)GlcNAc
# Method in brief: as §1
# [18] = target: Man(a1-3)[Man(a1-6)]Man(b1-4)GlcNAc(b1-4)GlcNAc
# Method in brief: as §1
# Man(b1-4)GlcNAc = target: Man(b1-4)GlcNAc
# Method in brief: as §1
# Neu5Ac(a2-3)Gal = target: Neu5Ac(a2-3)Gal
# Method in brief: as §1
# [19] = target: Neu5Ac(a2-3)Gal(b1-3)GalNAc
# Method in brief: as §1
# [20] = target: Neu5Ac(a2-3)Gal(b1-3)GalNAc(b1-3)Gal(a1-4)Gal(b1-4)Glc
# Method in brief: as §1
# [21] = target: Neu5Ac(a2-3)Gal(b1-3)GalNAc(b1-4)[Neu5Ac(a2-3)]Gal(b1-4)Glc
# Method in brief: as §1
# [22] = target: Neu5Ac(a2-3)Gal(b1-3)GalNAc6S
# Method in brief: as §1
# [23] = target: Neu5Ac(a2-3)Gal(b1-3)GlcNAc
# Method in brief: as §1
# [24] = target: Neu5Ac(a2-3)Gal(b1-3)GlcNAc(b1-3)Gal(b1-4)GlcNAc
# Method in brief: as §1
# [25] = target: Neu5Ac(a2-3)Gal(b1-3)GlcNAc6S
# Method in brief: as §1
# [26] = target: Neu5Ac(a2-3)Gal(b1-3)[Fuc(a1-4)]GlcNAc
# Method in brief: as §1
# [27] = target: Neu5Ac(a2-3)Gal(b1-3)[Fuc(a1-4)]GlcNAc(b1-3)Gal(b1-4)[Fuc(a1-3)]GlcNAc
# Method in brief: as §1
# [28] = target: Neu5Ac(a2-3)Gal(b1-3)[Neu5Ac(a2-3)Gal(b1-4)]GlcNAc
# Method in brief: as §1
# [29] = target: Neu5Ac(a2-3)Gal(b1-3)[Neu5Ac(a2-6)]GalNAc
# Method in brief: as §1
# Neu5Ac(a2-3)Gal(b1-4)Glc = target: Neu5Ac(a2-3)Gal(b1-4)Glc
# Method in brief: as §1
binder,measurement,setting,value
B1,glycan array binding signal (z-score),GlcNAc(b1-3)GalNAc,-0.001
same,glycan array binding signal (z-score),[1],0.569
same,glycan array binding signal (z-score),[2],-0.192
same,glycan array binding signal (z-score),[3],0.162
same,glycan array binding signal (z-score),[4],-0.025
same,glycan array binding signal (z-score),[5],-0.309
same,glycan array binding signal (z-score),[6],0.64
same,glycan array binding signal (z-score),[7],-0.197
same,glycan array binding signal (z-score),[8],1.16
same,glycan array binding signal (z-score),[9],-0.407
same,glycan array binding signal (z-score),GlcNAc(b1-6)GalNAc,-0.466
same,glycan array binding signal (z-score),Kdn(a2-3)Gal(b1-3)GlcNAc,-0.419
same,glycan array binding signal (z-score),Kdn(a2-3)Gal(b1-4)GlcNAc,-0.507
same,glycan array binding signal (z-score),[10],-0.116
same,glycan array binding signal (z-score),[11],-0.445
same,glycan array binding signal (z-score),[12],-0.267
same,glycan array binding signal (z-score),[13],-0.119
same,glycan array binding signal (z-score),Man(a1-2)Man(a1-3)Man,-0.127
same,glycan array binding signal (z-score),[14],-0.307
same,glycan array binding signal (z-score),[15],-0.433
same,glycan array binding signal (z-score),[16],-0.255
same,glycan array binding signal (z-score),Man(a1-3)[Man(a1-6)]Man,-0.082
same,glycan array binding signal (z-score),[17],-0.475
same,glycan array binding signal (z-score),[18],-0.359
same,glycan array binding signal (z-score),Man(b1-4)GlcNAc,-0.48
same,glycan array binding signal (z-score),Neu5Ac(a2-3)Gal,-0.526
same,glycan array binding signal (z-score),[19],-0.515
same,glycan array binding signal (z-score),[20],-0.407
same,glycan array binding signal (z-score),[21],-0.597
same,glycan array binding signal (z-score),[22],-0.469
same,glycan array binding signal (z-score),[23],-0.369
same,glycan array binding signal (z-score),[24],-0.659
same,glycan array binding signal (z-score),[25],-0.604
same,glycan array binding signal (z-score),[26],-0.371
same,glycan array binding signal (z-score),[27],-0.309
same,glycan array binding signal (z-score),[28],-0.561
same,glycan array binding signal (z-score),[29],-0.54
same,glycan array binding signal (z-score),Neu5Ac(a2-3)Gal(b1-4)Glc,-0.536
